Columns and labels:
Type in all cases: cell-based
[1] = test system: granzyme B secretion of human TIL cells (TIL14); assay: Granzyme B ELISA in TIL / melanoma co-culture
Procedure: FIGS. 5A-5B Synergistic effects of anti-CEACAM1 and anti-PD-1 antibodies on Granzyme B levels and the cytotoxicity of human TIL cells against human melanoma cells when anti-PD-1 antibodies are added prior to the addition of anti-CEACAM1 antibodies. Human melanoma cells were grown in the presence of IFN-ã to induce PD-L1 expression. Human TIL cells were incubated with medium only (black), non-specific IgG antibody (white), various concentrations of a monoclonal antibody to human CEACAM1 (vertical lines), a monoclonal antibody to human PD-1 (horizontal lines) or a combination of both antibodies (dots). (FIG. 5A) Results represent an average of % cytotoxicity ±SE as determined by classical LDH release assay from triplicate wells per treatment. * P≤0.05 paired T-test compared to a-PD-1 only. (FIG. 5B) Results represent Granzyme B levels ±SE as determined by commercial Granzyme B ELISA kit from triplicate wells per treatment.
Human melanoma cancer cells (MALME 3M) were grown in the presence of IFN-ã to induce PD-L1 expression. […] The combination index (CI) was calculated to be 0.15. In the same assay, the level of the cytotoxic protein granzyme B that is secreted upon cytotoxic cell activation was evaluated by commercial granzyme B ELISA Kit. […] The combination index (CI) was calculated to be 0.67. […]

[2] = test system: granzyme B secretion of human LAK cells; assay: Granzyme B secretion of human LAK cells with cancer cells, ELISA; settings: with T3M4 or H358 cells, 24 hours
Procedure: • A. Anti-CEACAM1 antibodies increase the cytotoxicity of human LAK cells against human melanoma cells: PBMC cells were isolated from a healthy donor followed by activation with IL-2 (500 or 1000 units/ml) for 3 days to generate a population of human LAK cells. Then, the human LAK cells were incubated with 0.1 μg/ml, 0.5 μg/ml, 2.5 μg/ml, 5 μg/ml or 10 μg/ml of an anti-CEACAM1 antibody (CM-24) for 30 minutes at 37° C. Human melanoma cells (SKMEL28) were added for an incubation of 24 hours, after which cytotoxicity was determined. […] PBMC cells were isolated from a healthy donor followed by activation with IL-2 (500 units/ml) for 7 days to generate a population of human LAK cells. Then, the human LAK cells were incubated with 0.1 μg/ml to 10 μg/ml of an anti-CEACAM1 antibody (CM-24) as indicated, for 30 minutes at 37° C. Three different human pancreatic cancer cells, T3M4, SU8686 and PANC2, and two different human lung cancer cells, H358 and H460, were added for an incubation of 24 hours. […] Anti-CEACAM1 antibodies enhance granzyme B secretion of human LAK cells in the presence of human pancreatic and lung cancer cells. Human LAK cells were incubated with an anti-CEACAM-1 antibody (CM-24) in different concentrations for 30 minutes at 37° C. […] Granzyme B secretion was measured by ELISA. […] IFN-γ secretion was measured by ELISA.

[3] = test system: Human melanoma cells (SKMEL28); assay: Cytotoxicity of human LAK cells against melanoma cells, LDH release; settings: 0.1-10 μg/ml CM-24, 24 hours
Procedure: FIG. 9. Anti-CEACAM1 antibodies increase the cytotoxicity of human LAK cells against human melanoma cells. Human LAK cells were incubated with CM-24 in different concentrations for 30 minutes at 37° C. Human melanoma cancer cells (SKMEL28) were added for an incubation of 24 hours. Results represent an average of % cytotoxicity ±SE as determined by classical LDH release assay from triplicate wells per treatment. * P≤0.05 paired T-test compared to effectors+target cells with medium only.
• A. Anti-CEACAM1 antibodies increase the cytotoxicity of human LAK cells against human melanoma cells: PBMC cells were isolated from a healthy donor followed by activation with IL-2 (500 or 1000 units/ml) for 3 days to generate a population of human LAK cells. Then, the human LAK cells were incubated with 0.1 μg/ml, 0.5 μg/ml, 2.5 μg/ml, 5 μg/ml or 10 μg/ml of an anti-CEACAM1 antibody (CM-24) for 30 minutes at 37° C. Human melanoma cells (SKMEL28) were added for an incubation of 24 hours, after which cytotoxicity was determined. […] PBMC cells were isolated from a healthy donor followed by activation with IL-2 (500 units/ml) for 7 days to generate a population of human LAK cells. Then, the human LAK cells were incubated with 0.1 μg/ml to 10 μg/ml of an anti-CEACAM1 antibody (CM-24) as indicated, for 30 minutes at 37° C. […] Granzyme B secretion was measured by ELISA. […] IFN-γ secretion was measured by ELISA.

B1: CM-24: back-mutated humanized IgG4 anti human CEACAM1 monoclonal antibody; light chain SEQ ID NO: 52, heavy chain SEQ ID NO: 53 (antibody)
heavy: QVQLVQSGAEVKKPGASVKVSCKASGYAFTNNLIEWVRQAPGQGLEWIGVINPGSGDTNYNEKFKGRVTMTADKSISTAYMELSRLRSDDTAVYYCARGDYYGGFAVDYWGQGTTVTVSSASTKGPSVFPLAPCSRSTSESTAALGCLVKDYFPEPVTVSWNSGALTSGVHTFPAVLQSSGLYSLSSVVTVPSSSLGTKTYTCNVDHKPSNTKVDKRV[letters of human IgG4 Fc with S228P (EU numbers) left out]
light: DIQMTQSPSSLSASVGDRVTITCRTSQDIGNYLNWYQQKPGKAVKLLIYYTSRLHSGVPSRFSGSGSGTDYTLTISSLQPEDIATYFCQQGKSLPRTFGGGTKVEIKRTVAAPSVFIFPPSDEQLKSGTASVVCLLNNFYPREAKVQWKVDNALQSGNSQESVTEQDSKDSTYSLSSTLTLSKADYEKHKVYACEVTHQGLSSPVTKSFNRGEC
[1]; CM-24 with mAb to human PD-1 (clone E12.2H7), anti-PD-1 added first
  granzyme B secretion: increases the granzyme B secretion
[1]; CM-24 with mAb to human PD-L1 (clone 29E.2A3), anti-PD-L1 added first
  granzyme B secretion: increases the granzyme B secretion
[2]
  Granzyme B levels: significantly increases Granzyme B levels in a dose-dependent manner
[3]
  cytotoxicity of human LAK cells: significantly increases cytotoxicity
